# Laboratory results reported in the supplement of paper PMC8728848.
# Some of the results follow.
# B1: GNAT (Pseudomonas aeruginosa), Q9HV14 (protein)
# chain: MQLSHRPAETGDLETVAGFPQDRDELFYCYPKAIWPFSVAQLAAAIAERRGSTVAVHDGQVLGFANFYQWQHGDFCALGNMMVAPAARGLGVARYLIGVMENLAREQYKARLMKISCFNANAAGLLLYTQLGYQPRAIAERHDPDGRRVALIQMDKPLEP
# Legend:
# Assay in all cases: glycan array binding signal (z-score within array); higher = stronger binding
# Settings in all cases: glycan notation: IUPAC condensed, linker removed
# [1] = biological target: Fuc(a1-2)[GalNAc(a1-3)]Gal(b1-4)Glc
# Procedure, shortened: (§1)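 From the Consortium for Functional Glycomics database, 3228 arrays were curated, keeping only those whose protein sequence was available. Binding is given as a within-array Z-score averaged across arrays sharing a protein sequence and across linkers. Negative Z-scores can be read as non-binding.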
# [2] = biological target: Fuc(a1-2)[GalNAc(a1-3)]Gal(b1-4)GlcNAc
# Procedure, shortened: as §1
# [3] = biological target: Fuc(a1-2)[GalNAc(a1-3)]Gal(b1-4)GlcNAc(b1-2)Man(a1-3)[Fuc(a1-2)[GalNAc(a1-3)]Gal(b1-4)GlcNAc(b1-2)Man(a1-6)]Man(b1-4)GlcNAc(b1-4)GlcNAc
# Procedure, shortened: as §1
# [4] = biological target: Fuc(a1-2)[GalNAc(a1-3)]Gal(b1-4)GlcNAc(b1-2)Man(a1-3)[Fuc(a1-2)[GalNAc(a1-3)]Gal(b1-4)GlcNAc(b1-2)Man(a1-6)]Man(b1-4)GlcNAc(b1-4)[Fuc(a1-6)]GlcNAc
# Procedure, shortened: as §1
# [5] = biological target: Fuc(a1-2)[GalNAc(a1-3)]Gal(b1-4)GlcNAc(b1-3)Gal(b1-4)GlcNAc
# Procedure, shortened: as §1
# [6] = biological target: Fuc(a1-2)[GalNAc(a1-3)]Gal(b1-4)GlcNAc(b1-3)Gal(b1-4)GlcNAc(b1-3)Gal(b1-4)GlcNAc
# Procedure, shortened: as §1
# [7] = biological target: Fuc(a1-2)[GalNAc(a1-3)]Gal(b1-4)GlcNAc(b1-3)GalNAc
# Procedure, shortened: as §1
# [8] = biological target: Fuc(a1-2)[GalNAc(a1-3)]Gal(b1-4)[Fuc(a1-3)]GlcNAc
# Procedure, shortened: as §1
# [9] = biological target: Fuc(a1-2)[GalNAc(a1-3)]Gal(b1-4)[Fuc(a1-3)]GlcNAc(b1-3)GalNAc
# Procedure, shortened: as §1
# [10] = biological target: Fuc(a1-2)[GalNAc(a1-4)]Gal(b1-4)GlcNAc
# Procedure, shortened: as §1
# [11] = biological target: Fuc(a1-2)[GalNAc(b1-3)]Gal
# Procedure, shortened: as §1
# Fuc(a1-3)GlcNAc = biological target: Fuc(a1-3)GlcNAc
# Procedure, shortened: as §1
# [12] = biological target: Fuc(a1-3)[Gal(b1-4)]Glc6S
# Procedure, shortened: as §1
# [13] = biological target: Fuc(a1-3)[Gal(b1-4)]GlcNAc
# Procedure, shortened: as §1
# [14] = biological target: Fuc(a1-3)[Gal(b1-4)]GlcNAc(b1-2)Man(a1-3)[Fuc(a1-3)[Gal(b1-4)]GlcNAc(b1-2)Man(a1-6)]Man(b1-4)GlcNAc(b1-4)GlcNAc
# Procedure, shortened: as §1
# [15] = biological target: Fuc(a1-3)[Gal(b1-4)]GlcNAc(b1-2)Man(a1-3)[Fuc(a1-3)[Gal(b1-4)]GlcNAc(b1-2)Man(a1-6)]Man(b1-4)GlcNAc(b1-4)[Fuc(a1-6)]GlcNAc
# Procedure, shortened: as §1
# [16] = biological target: Fuc(a1-3)[Gal(b1-4)]GlcNAc(b1-3)Gal(b1-3)[Fuc(a1-4)]GlcNAc
# Procedure, shortened: as §1
# [17] = biological target: Fuc(a1-3)[Gal(b1-4)]GlcNAc(b1-3)GalNAc
# Procedure, shortened: as §1
# [18] = biological target: Fuc(a1-3)[Gal(b1-4)]GlcNAc(b1-4)Gal(b1-4)[Fuc(a1-3)]GlcNAc
# Procedure, shortened: as §1
# [19] = biological target: Fuc(a1-3)[Gal(b1-4)]GlcNAc(b1-4)Gal(b1-4)[Fuc(a1-3)]GlcNAc(b1-4)Gal(b1-4)[Fuc(a1-3)]GlcNAc
# Procedure, shortened: as §1
# [20] = biological target: Fuc(a1-3)[Gal(b1-4)]GlcNAc(b1-6)GalNAc
# Procedure, shortened: as §1
# [21] = biological target: Fuc(a1-3)[Gal(b1-4)]GlcNAc(b1-6)[Gal(b1-3)GlcNAc(b1-3)]Gal(b1-4)Glc
# Procedure, shortened: as §1
# [22] = biological target: Fuc(a1-3)[Gal(b1-4)]GlcNAc(b1-6)[Neu5Ac(a2-3)Gal(b1-3)]GalNAc
# Procedure, shortened: as §1
# [23] = biological target: Fuc(a1-3)[Gal(b1-4)]GlcNAc6S
# Procedure, shortened: as §1
# [24] = biological target: Fuc(a1-3)[Gal3S(b1-4)]GlcNAc
# Procedure, shortened: as §1
# [25] = biological target: Fuc(a1-3)[Gal3S(b1-4)]GlcNAc6S
# Procedure, shortened: as §1
# [26] = biological target: Fuc(a1-3)[GalNAc(b1-4)]GlcNAc
# Procedure, shortened: as §1
# Fuc(a1-4)GlcNAc = biological target: Fuc(a1-4)GlcNAc
# Procedure, shortened: as §1
# Fuc(b1-3)GlcNAc = biological target: Fuc(b1-3)GlcNAc
# Procedure, shortened: as §1
# Gal(a1-2)Gal = biological target: Gal(a1-2)Gal
# Procedure, shortened: as §1
# Gal(a1-3)Gal = biological target: Gal(a1-3)Gal
# Procedure, shortened: as §1
# Gal(a1-3)Gal(b1-3)GlcNAc = biological target: Gal(a1-3)Gal(b1-3)GlcNAc
# Procedure, shortened: as §1
# [27] = biological target: Gal(a1-3)Gal(b1-3)GlcNAc(b1-2)Man(a1-3)[Gal(a1-3)Gal(b1-3)GlcNAc(b1-2)Man(a1-6)]Man(b1-4)GlcNAc(b1-4)GlcNAc
# Procedure, shortened: as §1
# [28] = biological target: Gal(a1-3)Gal(b1-3)GlcNAc(b1-3)GalNAc
# Procedure, shortened: as §1
# [29] = biological target: Gal(a1-3)Gal(b1-3)[Fuc(a1-4)]GlcNAc(b1-2)Man(a1-3)[Gal(a1-3)Gal(b1-3)[Fuc(a1-4)]GlcNAc(b1-2)Man(a1-6)]Man(b1-4)GlcNAc(b1-4)GlcNAc
# Procedure, shortened: as §1
# Gal(a1-3)Gal(b1-4)Glc = biological target: Gal(a1-3)Gal(b1-4)Glc
# Procedure, shortened: as §1
# Gal(a1-3)Gal(b1-4)GlcNAc = biological target: Gal(a1-3)Gal(b1-4)GlcNAc
# Procedure, shortened: as §1
# [30] = biological target: Gal(a1-3)Gal(b1-4)GlcNAc(b1-3)GalNAc
# Procedure, shortened: as §1
# [31] = biological target: Gal(a1-3)Gal(b1-4)[Fuc(a1-3)]GlcNAc
# Procedure, shortened: as §1
# [32] = biological target: Gal(a1-3)Gal(b1-4)[Fuc(a1-3)]GlcNAc(b1-2)Man(a1-3)[Gal(a1-3)Gal(b1-4)[Fuc(a1-3)]GlcNAc(b1-2)Man(a1-6)]Man(b1-4)GlcNAc(b1-4)GlcNAc
# Procedure, shortened: as §1
# Gal(a1-3)GalNAc = biological target: Gal(a1-3)GalNAc
# Procedure, shortened: as §1
# [33] = biological target: Gal(a1-3)[Gal(a1-4)]Gal(b1-4)GlcNAc
# Procedure, shortened: as §1
# [34] = biological target: Gal(a1-4)Gal(b1-3)GlcNAc(b1-2)Man(a1-3)[Gal(a1-4)Gal(b1-3)GlcNAc(b1-2)Man(a1-6)]Man(b1-4)GlcNAc(b1-4)GlcNAc
# Procedure, shortened: as §1
# Gal(a1-4)Gal(b1-4)Glc = biological target: Gal(a1-4)Gal(b1-4)Glc
# Procedure, shortened: as §1
# Gal(a1-4)Gal(b1-4)GlcNAc = biological target: Gal(a1-4)Gal(b1-4)GlcNAc
# Procedure, shortened: as §1
binder,measurement,setting,value
B1,glycan array binding signal (z-score),[1],-0.404
same,glycan array binding signal (z-score),[2],-0.45
same,glycan array binding signal (z-score),[3],-0.3
same,glycan array binding signal (z-score),[4],-0.438
same,glycan array binding signal (z-score),[5],-0.143
same,glycan array binding signal (z-score),[6],-0.156
same,glycan array binding signal (z-score),[7],-0.389
same,glycan array binding signal (z-score),[8],0.793
same,glycan array binding signal (z-score),[9],4.86
same,glycan array binding signal (z-score),[10],-0.464
same,glycan array binding signal (z-score),[11],-0.347
same,glycan array binding signal (z-score),Fuc(a1-3)GlcNAc,-0.397
same,glycan array binding signal (z-score),[12],-0.02
same,glycan array binding signal (z-score),[13],-0.389
same,glycan array binding signal (z-score),[14],-0.279
same,glycan array binding signal (z-score),[15],1.09
same,glycan array binding signal (z-score),[16],-0.27
same,glycan array binding signal (z-score),[17],2.09
same,glycan array binding signal (z-score),[18],-0.155
same,glycan array binding signal (z-score),[19],-0.48
same,glycan array binding signal (z-score),[20],5.07
same,glycan array binding signal (z-score),[21],-0.3
same,glycan array binding signal (z-score),[22],1.49
same,glycan array binding signal (z-score),[23],-0.123
same,glycan array binding signal (z-score),[24],-0.328
same,glycan array binding signal (z-score),[25],0.423
same,glycan array binding signal (z-score),[26],-0.408
same,glycan array binding signal (z-score),Fuc(a1-4)GlcNAc,-0.508
same,glycan array binding signal (z-score),Fuc(b1-3)GlcNAc,-0.481
same,glycan array binding signal (z-score),Gal(a1-2)Gal,-0.302
same,glycan array binding signal (z-score),Gal(a1-3)Gal,-0.415
same,glycan array binding signal (z-score),Gal(a1-3)Gal(b1-3)GlcNAc,-0.371
same,glycan array binding signal (z-score),[27],2.69
same,glycan array binding signal (z-score),[28],-0.26
same,glycan array binding signal (z-score),[29],0.451
same,glycan array binding signal (z-score),Gal(a1-3)Gal(b1-4)Glc,-0.248
same,glycan array binding signal (z-score),Gal(a1-3)Gal(b1-4)GlcNAc,-0.174
same,glycan array binding signal (z-score),[30],-0.128
same,glycan array binding signal (z-score),[31],0.224
same,glycan array binding signal (z-score),[32],4.4
same,glycan array binding signal (z-score),Gal(a1-3)GalNAc,-0.372
same,glycan array binding signal (z-score),[33],-0.167
same,glycan array binding signal (z-score),[34],1.08
same,glycan array binding signal (z-score),Gal(a1-4)Gal(b1-4)Glc,1.23
same,glycan array binding signal (z-score),Gal(a1-4)Gal(b1-4)GlcNAc,-0.159
